# From PubChem BioAssay AID1347165 (National Center for Advancing Translational Sciences (NCATS), 2019)
# The whole screen tested about 220,000 compounds, of which about 5,700 (2.6%) were called active. Inconclusive means that the source gave no clear call. Such entries were picked first, then a sample of the others. Calls follow the shape of the dose curve; as a rule, active = well fitted inhibition curve with a large enough effect; inconclusive = small, poorly fitted or top-dose-only effect; inactive = no such curve, though single readings can be large or run the other way. Potencies of inconclusive entries are doubtful fits and often do not repeat.
# Target: Lysine-specific demethylase 5B (Homo sapiens) (UniProt Q9UGL1)
# UniProt Q9UGL1, sequence (Q9UGL1 whole entry, looked up): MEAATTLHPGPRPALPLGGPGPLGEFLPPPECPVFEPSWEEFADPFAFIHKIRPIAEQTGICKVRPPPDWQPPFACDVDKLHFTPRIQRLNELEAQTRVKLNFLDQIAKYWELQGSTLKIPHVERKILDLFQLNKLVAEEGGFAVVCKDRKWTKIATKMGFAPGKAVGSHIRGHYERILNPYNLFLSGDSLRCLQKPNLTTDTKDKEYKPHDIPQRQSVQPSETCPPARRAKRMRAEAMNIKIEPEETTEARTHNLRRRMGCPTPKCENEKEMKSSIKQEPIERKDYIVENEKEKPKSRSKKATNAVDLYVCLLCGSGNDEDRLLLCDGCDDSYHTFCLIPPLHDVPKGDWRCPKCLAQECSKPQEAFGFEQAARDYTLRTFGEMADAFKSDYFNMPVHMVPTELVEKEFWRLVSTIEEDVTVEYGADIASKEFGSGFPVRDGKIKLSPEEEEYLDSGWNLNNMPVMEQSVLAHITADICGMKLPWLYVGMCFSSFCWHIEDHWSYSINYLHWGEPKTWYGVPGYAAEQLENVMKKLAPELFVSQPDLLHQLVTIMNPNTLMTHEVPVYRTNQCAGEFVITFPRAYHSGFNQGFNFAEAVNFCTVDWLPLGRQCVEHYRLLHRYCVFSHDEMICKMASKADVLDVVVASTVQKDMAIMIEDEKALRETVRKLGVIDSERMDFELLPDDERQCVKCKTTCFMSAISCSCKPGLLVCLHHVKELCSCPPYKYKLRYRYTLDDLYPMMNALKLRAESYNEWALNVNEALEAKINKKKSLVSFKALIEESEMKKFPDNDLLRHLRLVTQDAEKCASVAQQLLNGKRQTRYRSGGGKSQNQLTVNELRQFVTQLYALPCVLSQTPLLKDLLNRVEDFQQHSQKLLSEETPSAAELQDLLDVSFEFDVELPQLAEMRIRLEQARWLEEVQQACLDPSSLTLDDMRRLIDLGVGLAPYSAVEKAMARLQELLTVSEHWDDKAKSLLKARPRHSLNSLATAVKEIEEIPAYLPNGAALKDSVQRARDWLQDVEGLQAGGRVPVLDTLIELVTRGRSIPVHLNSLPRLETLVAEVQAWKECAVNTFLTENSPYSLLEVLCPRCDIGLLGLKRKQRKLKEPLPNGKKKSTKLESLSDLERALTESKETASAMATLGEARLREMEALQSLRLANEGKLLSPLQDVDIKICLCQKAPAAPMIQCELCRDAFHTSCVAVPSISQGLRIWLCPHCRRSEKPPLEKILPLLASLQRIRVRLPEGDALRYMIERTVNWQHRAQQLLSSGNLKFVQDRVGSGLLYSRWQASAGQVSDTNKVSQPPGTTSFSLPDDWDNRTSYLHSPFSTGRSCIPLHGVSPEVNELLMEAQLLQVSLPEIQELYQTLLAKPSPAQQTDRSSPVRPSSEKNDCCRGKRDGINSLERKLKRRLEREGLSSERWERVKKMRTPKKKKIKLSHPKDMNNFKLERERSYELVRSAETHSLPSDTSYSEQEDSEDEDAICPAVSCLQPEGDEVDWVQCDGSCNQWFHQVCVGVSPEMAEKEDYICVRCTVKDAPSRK
# Assay: Primary screen for KDM5B Histone Demethylases FDH-coupled qHTS; also: nearly all actives have a fitted effect of over 70% in size; as to activity change, negative = inhibition: 0% is about no effect
# Conditions: FDH-coupled NADH fluorescence (FDH is formaldehyde dehydrogenase); activity change, negative = inhibition: at 57.7 µM (top of the series) unless noted
# Procedure, shortened: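 Measured: NADH fluorescence change, 30 min, RT. System: KDM5BΔAP 200 nM final, H3K4me3 peptide, α-KG, Fe(II), ascorbate, NAD⁺ plus FDH, pH 7.5 HEPES. Compounds: titrated, 10 min pre-incubation with enzyme.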
# Potency is read from the fitted curve at half-maximal effect; tags tell the direction and shape of the fitted curve.
SMILES,"activity change, negative = inhibition",Potency
CCC(C)NC(=O)N(C)C1CCN(c2ccc(Cl)cc2)CC1 (stereo not drawn),inactive: 21.9%,–
O=C(COc1ccc(F)cc1F)Nc1cccc2cccnc12,inactive: 1.17%,–
Cc1ccccc1-c1cc(C(=O)NCCC(N)=O)c2c(c1)N(C)CCO2,–,active: 31.6 µM
COc1ccc(Cl)cc1-c1ncc2c(n1)OCCN(c1ccccc1)C2=O,–,active: 28.2 µM
CSc1ccc(C2C(C(=O)Nc3ccccc3)=C(C)Nc3nc4ccccc4n32)cc1 (stereo not drawn),–,"inconclusive: 1.58 µM [inhibitor, full curve, poor fit]"
N#Cc1cccc(-c2cn3c(n2)N(C(=O)c2cnccn2)CCC3)c1,–,"inconclusive: 28.2 µM [inhibitor, partial curve, poor fit]"
CC(Oc1cccc(Cl)c1)c1nc(-c2ccncc2)no1 (stereo not drawn),inactive: -22.1%,–
COc1ccccc1-n1[nH]c(C)c(Cc2ccccc2Cl)c1=O,–,"inconclusive: 22.4 µM [inhibitor, single point]"
COc1ccc(S(=O)(=O)c2c(Nc3ccccc3F)sc(C(=O)c3cccc(OC)c3)c2N)cc1,–,"inconclusive: 11.2 µM [inhibitor, partial curve, poor fit]"
Cc1oc2ncn(C)c(=O)c2c1C(=O)N1CCN(c2cccc(C(F)(F)F)c2)CC1,–,"inconclusive: 25.1 µM [inhibitor, single point]"
CCOc1ccc(CN2C(=O)c3ccccc3Sc3ccc(C(=O)NCc4ccco4)cc32)cc1,–,"inconclusive: 3.98 µM [inhibitor, full curve, poor fit]"
O=C(N1CCCN(c2cc(-c3ccc(Cl)cc3)[nH]n2)CC1)C1(c2ccccc2)CC1,–,"inconclusive: 12.6 µM [inhibitor, partial curve]"
COc1ccc(CNC(=O)c2cc(Nc3ccccc3C)nc3ccccc23)cc1,inactive: 63%,–
N#C/C(=C/c1cccc(OC(F)F)c1)c1ccccn1,inactive: -27.7%,–
CCOc1ccc(CN2CCN(CC(N)=O)CC2CCO)cc1 (stereo not drawn),–,"inconclusive: 25.1 µM [inhibitor, single point]"
Cc1c(-c2ccccc2)oc2c(C(=O)OCC(=O)NC(=O)NCCC(C)C)cccc2c1=O,inactive: 8.42%,–
O=C1NC(C(=O)O)=CC(c2ccc(Br)cc2)N1 (stereo not drawn),–,"inconclusive: 22.4 µM [inhibitor, single point]"
O=C1CC(c2c(Cl)cccc2Cl)c2c(ccc3ccccc23)N1 (stereo not drawn),–,"inconclusive: 25.1 µM [inhibitor, single point]"
CN(C)C[C@@H]1CN(S(C)(=O)=O)C[C@H]1NC(=O)c1ccc(C#N)cc1,–,"inconclusive: 15.8 µM [inhibitor, partial curve, poor fit]"
Cc1cc(S(=O)(=O)Nc2ccc(C(=O)N3c4ccccc4CC3C)cc2)ccc1F (stereo not drawn),inactive: -7.71%,–
COC(=O)CNC(=O)c1nc(-c2cccc(C(F)(F)F)c2)c2cnccn12,–,active: 28.2 µM
Cc1cccc(CN2CCN(S(=O)(=O)c3c(C)noc3C)CC2)c1,inactive: -14%,–
Cc1nn(-c2ccccc2)c(OC(=O)c2ccccc2Br)c1S(=O)(=O)c1ccccc1,–,"inconclusive: 15.8 µM [inhibitor, partial curve, poor fit]"

SMILES,"activity change, negative = inhibition",Potency
Cc1noc2c(Nc3ccc(N4CCOCC4)cc3)cc(-c3cccs3)nc12,–,"inconclusive: 39.8 µM [inhibitor, partial curve, poor fit]"
Cc1cc(NC(=O)c2ccc3c(c2)N(Cc2cccc(Cl)c2)C(=O)c2ccccc2S3(=O)=O)ccc1Br,–,"inconclusive: 7.08 µM [inhibitor, partial curve, poor fit]"
CCCCn1nc(C(=O)NCCC(=O)O)c2ccccc2c1=O,inactive: -11.1%,–
CCCn1c(N)c(N(CCOC)C(=O)c2cccnc2OCC)c(=O)[nH]c1=O,inactive: 1.27%,–
CN(C)CCCOCC1(C)COc2ccc(C(=O)Nc3ccccc3)cc2N1 (stereo not drawn),–,"inconclusive: 28.2 µM [inhibitor, single point]"
CC(C)(C)c1ccc(C(=O)Nc2c(N3CCCC3)c3ccccc3oc2=O)cc1,inactive: -17.9%,–
Cc1nc(NCc2ccc3c(c2)OCO3)c2c3c(sc2n1)CCCC3,inactive: -5.02%,–
c1ccc(-c2nnc(CSc3nnc(C4COc5ccccc5O4)o3)o2)cc1 (stereo not drawn),–,"inconclusive: 22.4 µM [inhibitor, partial curve, poor fit]"
CCCC(=O)n1nc(NCc2ccccc2)nc1NCc1ccccc1,–,"inconclusive: 39.8 µM [inhibitor, single point]"
Cc1oc2c(c(C)cc3oc(=O)c(CC(=O)NCCC(=O)O)c(C)c32)c1C,–,"inconclusive: 25.1 µM [inhibitor, partial curve, poor fit]"
CNc1c(NC(=O)CC(=O)OC)c(=O)oc2ccccc12,inactive: 18.3%,–
CCCN(C(=O)c1cn(C)c(=O)c2cc(OC)c(OC)cc12)c1ccc(CC)cc1,–,"inconclusive: 3.98 µM [inhibitor, partial curve, poor fit]"
COc1ccccc1-c1cnc(Nc2ccncc2)c2c1CCO2,–,"inconclusive: 35.5 µM [inhibitor, single point]"
CNC(=O)[C@@H](c1ccc(Cl)cc1)N1CCC[C@H]1C(=O)NCCOC,inactive: -29.4% [at 86.2 µM],–
N=CC1=C(O)CC(c2ccccc2)CC1=O (stereo not drawn),inactive: 0.955%,–
COc1ccc(S(=O)(=O)c2c(Nc3cccc(C)c3C)sc(C(=O)c3ccccc3)c2N)cc1,–,"inconclusive: 17.8 µM [inhibitor, partial curve, poor fit]"
Cn1cccc1CN1CCCC2(CC(Cc3ccccc3)=NO2)C1 (stereo not drawn),inactive: -18.6% [at 86.2 µM],–
COc1ccc(-c2nc(SCC(=O)NC(C)CCc3ccccc3)n[nH]2)cc1 (stereo not drawn),–,"inconclusive: 28.2 µM [inhibitor, single point]"
Cc1cccc(-c2cccc3c4c([nH]c23)[C@@H]2C[C@H](N(C)C(=O)C3CCCCC3)[C@H]([C@H](C)O)CN2CC4)c1,–,"inconclusive: 39.8 µM [inhibitor, single point]"
CC(C)[S+](=O)([O-])N1CCCC1c1nnc2n1CCNC2 (stereo not drawn),–,"inconclusive: 50.1 µM [inhibitor, partial curve, poor fit]"
COC(=O)c1[nH]c2ccc(F)cc2c1NC(C)=O,–,"inconclusive: 28.2 µM [inhibitor, single point]"
Cc1ccc(-n2ncc(C(=O)NCCN3CCc4ccccc4C3)c2C2CCN(C(=O)OC(C)(C)C)CC2)cc1C,inconclusive: -36.6% [inhibitor],–
O=C(Cn1cncn1)N/N=C/c1cc([N+](=O)[O-])ccc1O,–,"inconclusive: 3.16 µM [inhibitor, full curve, poor fit]"

SMILES,"activity change, negative = inhibition",Potency
O=Cc1cc2ccc(Br)cc2[nH]1,–,"inconclusive: 22.4 µM [inhibitor, partial curve, poor fit]"
O=C(c1ccncc1)N1CCC2(CC1)N=C(c1ccc(Cl)cc1)NO2,inactive: -29.6%,–
CN(Cc1ccc2nsnc2c1)C(=O)c1ccc(CCC(C)(C)O)cc1,–,"inconclusive: 17.8 µM [inhibitor, partial curve, poor fit]"
Cn1ncc2c(-c3ccc([S+](C)(=O)[O-])cc3)cc(C(=O)N3CCN(c4ncccn4)CC3)nc21,–,"inconclusive: 44.7 µM [inhibitor, partial curve, poor fit]"
CS(=O)(=O)N1CCCN(S(=O)(=O)c2ccccc2)CCC(=O)NCC1,–,"inconclusive: 14.1 µM [inhibitor, partial curve, poor fit]"
COc1ccc(CNC(=O)C2CCN(c3nnc(-n4c(C)ccc4C)s3)CC2)c(OC)c1,–,"inconclusive: 31.6 µM [inhibitor, single point]"
COC(=O)CC(NC(=O)CCc1cc(OC)ccc1OC)c1cccs1 (stereo not drawn),inactive: -6.02%,–
CCc1cc(=O)oc2cc(OCC(=O)N3CCCc4cc(OC)ccc43)ccc12,–,"inconclusive: 28.2 µM [inhibitor, partial curve, poor fit]"
O=C(NC1CCN(Cc2ccc(Cl)cc2)CC1)c1cc(C2CC2)nc2ccccc12,inactive: -14.3%,–
Cc1ccc(Nc2cc(C(=O)NCCc3ccccc3)c3ccccc3n2)c(C)c1,–,"inconclusive: 39.8 µM [inhibitor, single point]"
COc1ccc(NC(=O)CSc2nc(-c3cc(OC)c(OC)c(OC)c3)[nH]c2-c2ccc(F)cc2)cc1,–,"inconclusive: 10 µM [inhibitor, partial curve, poor fit]"
CCCCn1c(O)c(C2=Nc3ccccc3SC(c3ccc(O)cc3)C2)c(=O)[nH]c1=O (stereo not drawn),inactive: 10.3%,–
CC1C/C(=N\NC(N)=S)c2cc(Cl)ccc2S1 (stereo not drawn),–,"inconclusive: 31.6 µM [inhibitor, partial curve, poor fit]"
CC1CCN(C(c2ccccc2)c2sc3nc(-c4ccco4)nn3c2O)CC1 (stereo not drawn),inconclusive: -31.3% [inhibitor],–
O=C(CSc1nc(-c2ccccc2)cn1-c1ccccc1F)Nc1ccc(F)cc1,–,"inconclusive: 31.6 µM [inhibitor, single point]"
COc1cc(-c2ccnc3ncnn23)cc(OC)c1OC,–,"inconclusive: 12.6 µM [inhibitor, partial curve]"
O=C(CCCc1ccccc1)N1CCCC(c2nc(C3CCOCC3)no2)C1 (stereo not drawn),–,"inconclusive: 31.6 µM [inhibitor, single point]"
CCc1nnc(NC(=O)C2CC(=O)N(c3ccc(Br)c(C)c3)C2)s1 (stereo not drawn),inactive: -0.875%,–
CN1C[C@H](O)C[C@H]1c1nnc2n1CCN(Cc1ccc(C(F)(F)F)cc1)C2,inactive: -20.6%,–
Cc1cccc(N2CCN(S(=O)(=O)c3c(C)nc4scc(C)n4c3=O)CC2)c1C,–,inactive
COc1ccccc1NC(=O)c1ccc(COc2ccc(C)c(C)c2)o1,–,"inconclusive: 25.1 µM [inhibitor, single point]"
Cc1c(C(=O)N2CCC(C(=O)Nc3ccc4c(c3)OCO4)CC2)oc2ccc(F)cc12,inactive: -5.07%,–
